In one assay the test system is HSkMC. In words: cytotoxicity call (relative viability < 0.9). The settings on record: 10 µM.
Another assay has as its system HepG2. In words: cytotoxicity call (relative viability < 0.9). Conditions: 10 µM.
In a further assay the test system is S. aureus RN4220. In words: growth inhibition call (relative growth <= 0.2). Conditions: 50 µM.

The other results are listed elsewhere or left out.

On to `COc1ccc(S(=O)(=O)N(C)C[C@@H]2Oc3ccc(NC(=O)C4CC4)cc3C(=O)N([C@@H](C)CO)C[C@@H]2C)cc1`, for which the cytotoxicity call in the assay with HSkMC and in the assay with HepG2 was “inactive” in each case. Moreover, the growth inhibition call with S. aureus RN4220 was “inactive”.
Take `COc1ccc(CN(C)C[C@H]2OCCCC[C@@H](C)Oc3ccc(NC(=O)Nc4cccc5ccccc45)cc3C(=O)N([C@H](C)CO)C[C@@H]2C)cc1`: the cytotoxicity call with HSkMC and with HepG2 was “active” throughout. In the assay with S. aureus RN4220, the growth inhibition call is “inactive”.
For `C[C@@H]1CN([C@@H](C)CO)C(=O)c2cc(NC(=O)C3CC3)ccc2O[C@@H]1CN(C)Cc1ccc(Oc2ccccc2)cc1`, the cytotoxicity call in the assay on HSkMC and with HepG2 was “inactive” in each case. The growth inhibition call with S. aureus RN4220 is “inactive”.
Turning to `CN1C(=O)[C@@H]2[C@@H](C(=O)c3ccccn3)[C@@H]2C1=O`, the cytotoxicity call in the assay on HSkMC and with HepG2 was “inactive” throughout. For the same compound, the growth inhibition call in the assay with S. aureus RN4220 is “inactive”.
In the case of `COc1ccc(NC(=O)Nc2ccc3c(c2)CC(=O)N([C@H](C)CO)C[C@H](C)[C@H](CN(C)Cc2ccc(Oc4ccccc4)cc2)O3)cc1`, in the assay with HSkMC, the cytotoxicity call was “inactive”. The cytotoxicity call in the assay on HepG2 was “active”. The growth inhibition call in the assay with S. aureus RN4220 was “inactive”.
Take `Cc1noc(C)c1NC(=O)Nc1ccc2c(c1)C(=O)N([C@H](C)CO)C[C@H](C)[C@@H](CN(C)Cc1ccc(Cl)c(Cl)c1)OCCCC[C@@H](C)O2`: the cytotoxicity call in the assay with HSkMC and with HepG2 was “inactive” throughout. Moreover, the growth inhibition call in the assay with S. aureus RN4220 was “inactive”.
For the compound `Cc1noc(C)c1S(=O)(=O)N(C)C[C@@H]1Oc2c(NC(=O)C3CCOCC3)cccc2C(=O)N([C@@H](C)CO)C[C@@H]1C`, the cytotoxicity call in the assay on HSkMC and in the assay on HepG2 was “inactive” throughout. Besides, the growth inhibition call in the assay on S. aureus RN4220 is “inactive”.
For the compound `CCOC(=O)CN1C[C@]23C=C[C@H](O2)[C@@H](C(=O)NCc2ccc(OC)cc2)[C@H]3C1=O`, the cytotoxicity call in the assay on HSkMC and in the assay with HepG2 was “inactive” each time. The growth inhibition call with S. aureus RN4220 is “inactive”.
As to `Cn1nccc1CO`, the cytotoxicity call in the assay on HSkMC and with HepG2 was “inactive” each time. In addition, the growth inhibition call with S. aureus RN4220 was “inactive”.
In the case of `C[C@@H]1CN([C@H](C)CO)S(=O)(=O)c2ccc(C#Cc3ccccc3)cc2O[C@H]1CN(C)S(=O)(=O)c1ccccc1F`, the cytotoxicity call in the assay with HSkMC and in the assay on HepG2 was “inactive” in each case. The growth inhibition call with S. aureus RN4220 is “inactive”.
With `C[C@H]1CN([C@@H](C)CO)C(=O)Cc2cc(NC(=O)Nc3ccccc3)ccc2O[C@@H]1CN(C)Cc1ccc(C(F)(F)F)cc1`, the cytotoxicity call in the assay on HSkMC and in the assay with HepG2 was “active” each time. Moreover, in the assay on S. aureus RN4220, the growth inhibition call is “inactive”.
`C[C@H](CO)N1C[C@H](C)[C@H](CN(C)C(=O)NC2CCCCC2)Oc2c(NS(C)(=O)=O)cccc2C1=O`: the cytotoxicity call with HSkMC and in the assay with HepG2 was “inactive” each time. Moreover, the growth inhibition call in the assay with S. aureus RN4220 is “inactive”.
As for `C[C@@H]1CN([C@@H](C)CO)C(=O)Cc2cc(NC(=O)C3CC3)ccc2O[C@H]1CN(C)S(=O)(=O)c1cn(C)cn1`, the cytotoxicity call in the assay with HSkMC and in the assay with HepG2 was “inactive” in each case. The growth inhibition call with S. aureus RN4220 is “inactive”.
Turning to `COC(=O)[C@H]1CN(C)CCC1=O`, the cytotoxicity call with HSkMC and with HepG2 was “inactive” in each case. For the same compound, in the assay with S. aureus RN4220, the growth inhibition call was “inactive”.
In the case of `C[C@@H]1CCCCO[C@H](CN(C)C(=O)Cc2ccccc2)[C@@H](C)CN([C@H](C)CO)C(=O)c2cc(NC(=O)NC3CCCCC3)ccc2O1`, the cytotoxicity call in the assay on HSkMC and in the assay on HepG2 was “inactive” throughout. Further, in the assay with S. aureus RN4220, the growth inhibition call was “inactive”.
As for `C[C@@H]1CCCCO[C@@H](CN(C)C(=O)NC2CCCCC2)[C@H](C)CN([C@@H](C)CO)C(=O)c2cc(NS(=O)(=O)c3ccc(F)cc3)ccc2O1`, the cytotoxicity call with HSkMC and in the assay on HepG2 was “inactive” throughout. For the same compound, in the assay with S. aureus RN4220, the growth inhibition call was “inactive”.
Consider `CC(C)(C)[S@](=O)N1Cc2cc(C(=O)N[C@H]3CCN(Cc4ccccc4)C3)nc(-c3cccc(-c4cccnc4)c3)c2[C@@H]1CCO`, for which the cytotoxicity call in the assay with HSkMC and with HepG2 was “inactive” each time. Besides, the growth inhibition call in the assay on S. aureus RN4220 is “inactive”.
On to `CN(C)C(=O)c1ccc(-c2cccc(-c3nc(C(=O)NC4CCCC4)cc4c3[C@H](CCO)N([S@@](=O)C(C)(C)C)C4)c2)cc1`, for which the cytotoxicity call with HSkMC and in the assay on HepG2 was “inactive” throughout. For the same compound, the growth inhibition call in the assay on S. aureus RN4220 was “inactive”.
`N[C@H](C(=O)O)c1ccc(O)c(C(=O)O)c1`: the cytotoxicity call in the assay with HSkMC and with HepG2 was “inactive” in each case. In the assay with S. aureus RN4220, the growth inhibition call is “inactive”.
Take `C[C@@H]1CCCCO[C@H](CN(C)C(=O)Nc2ccc3c(c2)OCO3)[C@@H](C)CN([C@@H](C)CO)C(=O)c2cc(NC(=O)C3CCCCC3)ccc2O1`: the cytotoxicity call with HSkMC and with HepG2 was “inactive” throughout. The growth inhibition call in the assay on S. aureus RN4220 is “inactive”.
`Cc1noc(C)c1S(=O)(=O)Nc1ccc2c(c1)C(=O)N([C@@H](C)CO)C[C@@H](C)[C@H](CN(C)C(=O)NC1CCCCC1)O2`: the cytotoxicity call in the assay with HSkMC and in the assay on HepG2 was “inactive” in each case. Besides, in the assay on S. aureus RN4220, the growth inhibition call is “inactive”.
Consider `C[C@H]1CN([C@@H](C)CO)C(=O)c2cc(C#CCN(C)C)cnc2O[C@H]1CN(C)C(=O)Nc1cccc(F)c1`, for which the cytotoxicity call in the assay with HSkMC and in the assay on HepG2 was “inactive” throughout. In addition, the growth inhibition call in the assay on S. aureus RN4220 was “inactive”.
Turning to `C[C@H]1CN([C@@H](C)CO)C(=O)c2cccc(NC(=O)Nc3cccc4ccccc34)c2O[C@H]1CN(C)S(=O)(=O)c1cccs1`, the cytotoxicity call in the assay with HSkMC and in the assay with HepG2 was “inactive” in each case. Moreover, in the assay on S. aureus RN4220, the growth inhibition call was “inactive”.
Turning to `C[C@H](CO)N1C[C@H](C)[C@H](CN(C)S(C)(=O)=O)Oc2c(NC(=O)CCCCCC(=O)Nc3ccccc3N)cccc2C1=O`, the cytotoxicity call with HSkMC and with HepG2 was “inactive” each time. Further, the growth inhibition call with S. aureus RN4220 is “inactive”.
Take `COC(=O)c1c(C)cc(OC(=O)c2c(C)cc(O)c(CO)c2O)c(C)c1O`: the cytotoxicity call in the assay on HSkMC (human skeletal muscle cells) and in the assay on HepG2 was “inactive” in each case. Further, the growth inhibition call with S. aureus RN4220 is “inactive”.
Consider `C[C@@H]1CN([C@@H](C)CO)C(=O)c2cc(C#CC(C)(C)O)cnc2O[C@@H]1CN(C)C(=O)CN(C)C`, for which the cytotoxicity call with HSkMC and in the assay with HepG2 was “inactive” in each case. Also, the growth inhibition call in the assay with S. aureus RN4220 is “inactive”.

Source of the values: the antibiotic and cytotoxicity screens of Wong et al. (2023).
